# PubChem BioAssay AID1865 (National Center for Advancing Translational Sciences (NCATS), 2009)
# About 540 (0.19%) of roughly 280,000 compounds were called active. The shares of active, inactive and inconclusive entries below differ from those in the screen. Calls come from the whole dose curve; as a rule, active = well fitted activation curve with a large enough effect; inconclusive = small, poorly fitted or top-dose-only effect; inactive = flat fitted curve, though single readings scatter. Potencies beside an inconclusive call are fits to weak or partial responses and may not hold up.
# Test: Quantitative High-Throughput Screen for Regulators of Epigenetic Control; note: nearly all actives have a fitted effect of over 60% in size
# Settings: murine LDR cells, GFP reporter derepression, 30 h; series mostly up to 53.9 µM
# Method in brief: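 In this reporter-derepression format, murine cells bearing a silenced integrated CMV-GFP locus incubate with test compound (30 h, 37 C), then are washed and imaged; fluorescent objects of 20–120 um count as induced cells.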
# Potency is the fitted concentration of half-maximal effect; tags give direction and shape of the fitted curve.
row,SMILES,Potency
1,O=C(c1cc(-c2ccc(Cl)cc2)n(-c2ccc(Cl)c(Cl)c2)n1)N1CCOCC1,inactive
2,Cc1cc(C(F)(F)F)c2c(N)c(C(=O)Nc3cc(C)on3)sc2n1,"inconclusive: 25.1 µM [activator, single point]"
3,Cc1[nH]c2ccccc2c1C(=O)COC(=O)c1ccc2c(=O)n3c(nc2c1)CCC3,"inconclusive: 31.6 µM [activator, single point]"
4,Cc1occc1C(=O)N/N=C/C(Br)=C/c1ccccc1,active: 22.4 µM
5,Cc1ccc(C)c(NC(=O)/C(C#N)=C/c2cn(CC(=O)NCc3ccco3)c3ccccc23)c1,"inconclusive: 25.1 µM [activator, single point]"
6,CCCCn1nc(NC(=O)c2cccc(Cl)c2)c2cc3cccc(C)c3nc21,"inconclusive: 25.1 µM [activator, single point]"
7,CC(C)CC(=O)Nc1c2c(nn1-c1ccc(F)cc1)CSC2,"inconclusive: 35.5 µM [activator, single point]"
8,O=c1oc2ccccc2nc1/C=C(\O)c1ccc(Br)cc1,"inconclusive: 17.8 µM [activator, single point]"
9,COc1ccc(C)cc1NC(=O)CCC(=O)Nc1ccc2nc(N3CCN(C)CC3)cc(C)c2c1,inactive
10,Oc1[nH]c2ccccc2c1N=NC(=S)N1CCOCC1,active: 3.98 µM
11,C=CCn1c(=N)c(C(=O)OCC)cc2c(=O)n3cc(C)ccc3nc21,"inconclusive: 3.98 µM [activator, partial curve]"
12,CCC(c1c(C)[nH]oc1=O)c1c(C)[nH]oc1=O,"inconclusive: 7.94 µM [activator, single point]"
13,Cn1c(=O)oc2cc(S(=O)(=O)N3CCCC(C(=O)NC4CCCc5ccccc54)C3)ccc21 (centres undefined),"inconclusive: 35.5 µM [activator, single point]"
14,COc1ccc(NC(=O)c2sc3nc(-c4cccnc4)ccc3c2N)cc1OC,active: 7.08 µM
15,O=[N+]([O-])c1cccnc1N1CCC(c2cc(-c3ccc(Cl)cc3)n[nH]2)CC1,"inconclusive: 35.5 µM [activator, single point]"
16,COc1ccc2[nH]c3c(C)c4ccncc4c(C)c3c2c1,"inconclusive: 35.5 µM [activator, single point]"
17,CC(=O)OC1C(OC(C)=O)N(C(C)=O)C(=O)N1C(C)=O (centres undefined),"inconclusive: 5.62 µM [activator, single point]"
18,COc1ccc(-c2cn3ccc4ccccc4c3n2)cc1,inactive
19,CCOC(=O)C(CC)Sc1ncnc2c1nnn2-c1ccc(F)cc1 (centres undefined),"inconclusive: 35.5 µM [activator, single point]"
20,O=C(/C=C/c1ccccc1)c1ccccc1,"inconclusive: 35.5 µM [activator, single point]"
21,Cn1c(=O)c([N+](=O)[O-])c(-n2cnc3ccccc32)c2ccccc21,"inconclusive: 35.5 µM [activator, single point]"
22,CCOC(=O)c1c(-c2cccc([N+](=O)[O-])c2)csc1NC(=O)CCCOc1ccccc1,"inconclusive: 17.8 µM [activator, single point]"

row,SMILES,Potency
1,COc1ccc(CNC(=O)CCC(=O)N2CCSc3ccccc32)cc1,"inconclusive: 3.16 µM [activator, single point]"
2,CNc1oc(C)nc1S(=O)(=O)c1ccc(C)cc1,inactive
3,CCOC(=O)N1CCN(S(=O)(=O)c2ccc(C(=O)Nc3nnc(C)o3)cc2)CC1,inactive
4,CC(C)OC(=O)CSc1nnc2c(n1)[nH]c1ccc(F)cc12,"inconclusive: 10 µM [activator, partial curve]"
5,COc1ccccc1C1CN(c2ccc(F)cc2F)N=C1c1cccs1 (centres undefined),inactive
6,COc1ccc(CCN(C)C(=O)CSc2nc3ncc(Cl)cc3[nH]2)cc1OC,inactive
7,Cc1ccc(CNC(=O)CSc2c3c(nc4cc(Cl)ccc24)CCCC3)o1,"inconclusive: 17.8 µM [activator, single point]"
8,CCOC(=O)c1[nH]nc(-c2c(O)cc(C)cc2O)c1-c1csc(C)n1,inactive
9,O=c1oc2ccccc2cc1-c1csc(Nc2nc3c(F)cccc3s2)n1,"inconclusive: 3.98 µM [activator, single point]"
10,COc1ccc2oc(C)c(NC(C)=O)c2c1,"inconclusive: 6.31 µM [activator, single point]"
11,O=C(CSc1nc2ccccc2nc1Cc1ccccc1)Nc1ccc2c(c1)OCO2,"inconclusive: 3.16 µM [activator, single point]"
12,CCCSCCCNC(=O)c1ccc(Cn2c(=O)c3cccn3c3cccnc32)cc1,"inconclusive: 5.62 µM [activator, single point]"
13,S=c1[nH]cnc2scc(-c3ccccc3)c12,"inconclusive: 31.6 µM [activator, single point]"
14,CCOC(=O)CSc1nc2ccc(C)cc2cc1C#N,"inconclusive: 5.01 µM [activator, single point]"
15,Cc1ccc(CC(CC(=O)O)C(=O)NCc2ccccc2)cc1 (centres undefined),inactive
16,CC(C)(C)c1ccc(Oc2ccc(NC(=O)c3ccco3)cn2)cc1,"inconclusive: 12.6 µM [activator, partial curve]"
17,CCOC(=O)c1c(NC(=O)c2ccc(S(=O)(=O)N(CCOC)CCOC)cc2)sc2c1CC(C)(C)NC2(C)C,"inconclusive: 31.6 µM [activator, single point]"
18,CCn1c(O)c(/C=N/N=C/c2ccc(OC)cc2)c2cc(C3=NNC(=O)CC3)ccc21,active: 7.08 µM
19,Cc1[nH]nc2c1C(c1cc(Br)cs1)C(C#N)=C(N)O2 (centres undefined),"inconclusive: 12.6 µM [activator, single point]"
20,Cc1ccc(SCc2nc3ccccc3n2CC(=O)Nc2ccc(Cl)cc2)cc1,"inconclusive: 35.5 µM [activator, single point]"
21,COc1ccc(N2CCN(CCCNC(=O)c3cnn(-c4ccc(F)cc4)c3-n3cccc3)CC2)cc1,inactive
22,CCc1ccccc1NC(=O)CSc1ncc2c(n1)-c1ccccc1N(Cc1ccc(C)cc1)S2(=O)=O,"inconclusive: 35.5 µM [activator, single point]"
